Measured values: a compilation of properties of binary mixtures (doi:10.1016/j.molliq.2013.10.014)
Some of these densities may be calculated back from excess volumes.

Assay: xn = mol fraction of the nth substance listed
Settings: 100 kPa

CCCC[n+]1ccn(C)c1.O=S(=O)([N-]S(=O)(=O)C(F)(F)F)C(F)(F)F + c1ccsc1
x2 = 0
Settings | mass density [kg/m3]
298.15 K | 1437
308.15 K | 1428
318.15 K | 1418

c1ccsc1 + CCCC[n+]1ccn(C)c1.O=S(=O)([N-]S(=O)(=O)C(F)(F)F)C(F)(F)F
mass density [kg/m3]
Settings | x1 = 0.089 | x1 = 0.276 | x1 = 0.336 | x1 = 0.561 | x1 = 0.77 | x1 = 1
298.15 K | 1429 | 1406 | 1397 | – | 1308 | –
308.15 K | – | – | 1387 | 1359 | 1298 | 1047
318.15 K | 1410 | 1386 | 1377 | 1349 | 1287 | 1034
328.15 K | 1401 | 1376 | 1368 | 1339 | 1277 | 1022

CC[n+]1ccn(C)c1.O=S(=O)([N-]S(=O)(=O)C(F)(F)F)C(F)(F)F + c1ccccc1
mass density [kg/m3]
Settings | x2 = 0 | x2 = 0.135 | x2 = 0.339 | x2 = 0.471 | x2 = 0.492
298.15 K | 1519 | – | – | 1381 | 1373
308.15 K | 1509 | 1480 | 1421 | 1371 | 1363
318.15 K | 1499 | 1469 | 1411 | – | 1352
328.15 K | – | 1460 | – | 1350 | 1342

c1ccccc1 + CC[n+]1ccn(C)c1.O=S(=O)([N-]S(=O)(=O)C(F)(F)F)C(F)(F)F
x1 = 1
Settings | mass density [kg/m3]
298.15 K | 874
308.15 K | 863
318.15 K | 852
328.15 K | 841

CCCC[n+]1ccn(C)c1.O=S(=O)([O-])C(F)(F)F + c1ccccc1
mass density [kg/m3]
Settings | x2 = 0 | x2 = 0.122 | x2 = 0.304 | x2 = 0.353 | x2 = 0.573
298.15 K | – | – | 1246 | 1232 | –
308.15 K | 1292 | – | – | 1224 | 1160
318.15 K | 1284 | 1264 | 1229 | 1216 | –
328.15 K | 1276 | 1256 | – | 1208 | 1143

c1ccccc1 + CCCC[n+]1ccn(C)c1.O=S(=O)([O-])C(F)(F)F
x1 = 1
Settings | mass density [kg/m3]
298.15 K | 874
328.15 K | 841
